Data as given in US20230211007A1 (published 2023).

T1: VEGF-165 (UniProt P15692-4 27-191)
T1 construct: Bought reagent
T1 sequence (looked up): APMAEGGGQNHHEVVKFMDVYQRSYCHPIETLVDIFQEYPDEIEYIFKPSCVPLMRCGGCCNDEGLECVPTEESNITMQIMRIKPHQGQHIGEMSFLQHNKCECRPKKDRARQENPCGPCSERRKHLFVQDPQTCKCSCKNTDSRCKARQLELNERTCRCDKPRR


Biological target: T1, VEGF-165
Assay: BLI (Octet), conjugate on Pro A probe, VEGF-165 50-200 nM in solution

Kd | Binder
1.96 nM | 166ADC (anti-VEGF 166C mutant coupled to DC, polypeptide-linker) (other, Lys(Ac) at 2 and 9; C-terminal amide (CONH2); the underlined Lys (printed 'Lu', position 11) linked to the linker formamide-PEG4-NHS; Cys at Kabat position 166 coupled to DC (polypeptide-linker), Antibody-polypeptide conjugate: Ang2-neutralising peptide joined through a linker to the light chain cysteine; also called conjugate; antibody-polypeptide conjugate) heavy: EVQLVESGGGLVQPGGSLRLSCAASGYTFTNYGMNWVRQAPGKGLEWVGWINTYTGEPTYAADFKRRFTFSLDTSKSTAYLQMNSLRAEDTAVYYCAKYPHYYGSSHWYFDVWGQGTLVTVSSASTKGPSVFPLAPSSKSTSGGTAALGCLVKDYFPEPVTVSWNSGALTSGVHTFPAVLQSSGLSLSSVVTVPSSSLGTQTYICNVNHKPSNTKVDKKV[human IgG1 Fc not written out] light: DIQMTQSPSSLSASVGDRVTITCSASQDISNYLNWYQQKPGKAPKVLIYFTSSLHSGVPSRFSGSGSGTDFTLTISSLQPEDFATYYCQQYSTVPWTFGQGTKVEIKRTVAAPSVFIFPPSDEQLKSGTASVVCLLNNFYPREAKVQWKVDNALQSGNSQESVTECDSKDSTYSLSSTLTLSKADYEKHKVYACEVTHQGLSSPVTKSFNRGEC peptide: QKYQPLDEKDKTLYDQFMLQQG
0.87 nM | 124ADC (anti-VEGF 124C mutant coupled to DC, polypeptide-linker) (other, Lys(Ac) at 2 and 9; C-terminal amide (CONH2); the underlined Lys (printed 'Lu', position 11) linked to the linker formamide-PEG4-NHS; Cys at Kabat position 124 coupled to DC (polypeptide-linker), Antibody-polypeptide conjugate; also called conjugate; antibody-polypeptide conjugate) heavy: EVQLVESGGGLVQPGGSLRLSCAASGYTFTNYGMNWVRQAPGKGLEWVGWINTYTGEPTYAADFKRRFTFSLDTSKSTAYLQMNSLRAEDTAVYYCAKYPHYYGSSHWYFDVWGQGTLVTVSSASTKGPSVFPLAPSSKSTSGGTAALGCLVKDYFPEPVTVSWNSGALTSGVHTFPAVLQSSGLSLSSVVTVPSSSLGTQTYICNVNHKPSNTKVDKKV[human IgG1 Fc not written out] light: DIQMTQSPSSLSASVGDRVTITCSASQDISNYLNWYQQKPGKAPKVLIYFTSSLHSGVPSRFSGSGSGTDFTLTISSLQPEDFATYYCQQYSTVPWTFGQGTKVEIKRTVAAPSVFIFPPSDECLKSGTASVVCLLNNFYPREAKVQWKVDNALQSGNSQESVTEQDSKDSTYSLSSTLTLSKADYEKHKVYACEVTHQGLSSPVTKSFNRGEC peptide: QKYQPLDEKDKTLYDQFMLQQG
